According to the CheMixHub viscosity set:
“And” between values parts separate entries of the source, which are not always exact repeats. Identical values can stand only once. The source gives many values for each of these; only a part stands here.

Assay: xn = mol fraction of the nth substance listed

OCC(O)CO + O
Details	viscosity
298.15 K, 101 kPa, x1 = 0.8114	408.3 mPa·s
298.15 K, 101 kPa, x1 = 0.8274	441.8 mPa·s
298.15 K, 101 kPa, x1 = 0.8428	474.8 mPa·s
298.15 K, 101 kPa, x1 = 0.859	512.3 mPa·s
298.15 K, 101 kPa, x1 = 0.8905	539.1 mPa·s
298.15 K, 101 kPa, x1 = 0.9082	636.8 mPa·s
298.15 K, 101 kPa, x1 = 0.9434	747.4 mPa·s
298.15 K, 101 kPa, x1 = 0.96	757.4 mPa·s
298.15 K, 101 kPa, x2 = 0.0171	884 mPa·s
300.65 K, 101 kPa, x1 = 0.1967	6.203 mPa·s
300.65 K, 101 kPa, x1 = 0.2067	6.776 mPa·s
300.65 K, 101 kPa, x1 = 0.2178	7.43 mPa·s
300.65 K, 101 kPa, x1 = 0.225	7.918 mPa·s
300.65 K, 101 kPa, x1 = 0.2378	8.792 mPa·s
300.65 K, 101 kPa, x1 = 0.2459	9.438 mPa·s
300.65 K, 101 kPa, x1 = 0.2622	10.79 mPa·s
303.15 K, 101 kPa, x1 = 0.021	1.03 mPa·s
303.15 K, 101 kPa, x1 = 0.047	1.35 mPa·s
303.15 K, 101 kPa, x1 = 0.077	1.87 mPa·s
303.15 K, 101 kPa, x1 = 0.1005	2.231 mPa·s
303.15 K, 101 kPa, x1 = 0.12	2.72 mPa·s
303.15 K, 101 kPa, x1 = 0.16	4.21 mPa·s
303.15 K, 101 kPa, x1 = 0.2026	5.528 mPa·s
303.15 K, 101 kPa, x1 = 0.23	7.19 mPa·s
303.15 K, 101 kPa, x1 = 0.27	9.85 mPa·s
303.15 K, 101 kPa, x1 = 0.28	11.3 mPa·s
303.15 K, 101 kPa, x1 = 0.281	7.803 mPa·s
303.15 K, 101 kPa, x1 = 0.3085	9.698 mPa·s
303.15 K, 101 kPa, x1 = 0.31	14.1 mPa·s
303.15 K, 101 kPa, x1 = 0.37	21.2 mPa·s
303.15 K, 101 kPa, x1 = 0.399	19.28 mPa·s
303.15 K, 101 kPa, x1 = 0.44	33.9 mPa·s
303.15 K, 101 kPa, x1 = 0.5002	48.48 mPa·s
303.15 K, 101 kPa, x1 = 0.53	58 mPa·s
303.15 K, 101 kPa, x1 = 0.6006	89.61 mPa·s
303.15 K, 101 kPa, x1 = 0.64	109 mPa·s
303.15 K, 101 kPa, x1 = 0.6493	119.1 mPa·s
303.15 K, 101 kPa, x1 = 0.66	126 mPa·s
303.15 K, 101 kPa, x1 = 0.69	147 mPa·s
303.15 K, 101 kPa, x1 = 0.6917	145 mPa·s
303.15 K, 101 kPa, x1 = 0.72	172 mPa·s
303.15 K, 101 kPa, x1 = 0.7442	205.9 mPa·s
303.15 K, 101 kPa, x1 = 0.75	202 mPa·s
303.15 K, 101 kPa, x1 = 0.7646	222.3 mPa·s
303.15 K, 101 kPa, x1 = 0.79	237 mPa·s
303.15 K, 101 kPa, x1 = 0.7947	257.2 mPa·s
303.15 K, 101 kPa, x1 = 0.7958	245.8 mPa·s
303.15 K, 101 kPa, x1 = 0.8114	279.6 mPa·s
303.15 K, 101 kPa, x1 = 0.82	281 mPa·s
303.15 K, 101 kPa, x1 = 0.8274	300.6 mPa·s
303.15 K, 101 kPa, x1 = 0.8428	322.4 mPa·s
303.15 K, 101 kPa, x1 = 0.859	346.7 mPa·s
303.15 K, 101 kPa, x1 = 0.86	340 mPa·s
303.15 K, 101 kPa, x1 = 0.8905	384 mPa·s
303.15 K, 101 kPa, x1 = 0.9082	427.2 mPa·s
303.15 K, 101 kPa, x1 = 0.91	409 mPa·s
303.15 K, 101 kPa, x1 = 0.9434	496.2 mPa·s
303.15 K, 101 kPa, x1 = 0.95	500 mPa·s
303.15 K, 101 kPa, x1 = 0.96	500.7 mPa·s
303.15 K, 101 kPa, x2 = 0.0171	583.3 mPa·s
303.15 K, 101.3 kPa, x1 = 0.002	0.807 mPa·s
303.15 K, 101.3 kPa, x1 = 0.004	0.817 mPa·s
303.15 K, 101.3 kPa, x1 = 0.005	0.833 mPa·s
303.15 K, 101.3 kPa, x1 = 0.007	0.864 mPa·s
303.15 K, 101.3 kPa, x1 = 0.009	0.874 mPa·s
303.15 K, 101.3 kPa, x1 = 0.01	0.894 mPa·s and 0.908 mPa·s and 0.923 mPa·s
303.15 K, 101.3 kPa, x1 = 0.02	0.941 mPa·s and 0.957 mPa·s
308.15 K, 101.3 kPa, x1 = 0.002	0.731 mPa·s
308.15 K, 101.3 kPa, x1 = 0.004	0.741 mPa·s
308.15 K, 101.3 kPa, x1 = 0.005	0.763 mPa·s
308.15 K, 101.3 kPa, x1 = 0.007	0.789 mPa·s
308.15 K, 101.3 kPa, x1 = 0.009	0.792 mPa·s
308.15 K, 101.3 kPa, x1 = 0.01	0.799 mPa·s and 0.822 mPa·s and 0.844 mPa·s
308.15 K, 101.3 kPa, x1 = 0.02	0.851 mPa·s and 0.861 mPa·s
313.15 K, 101 kPa, x1 = 0.021	0.826 mPa·s
313.15 K, 101 kPa, x1 = 0.047	1.07 mPa·s
313.15 K, 101 kPa, x1 = 0.077	1.46 mPa·s
313.15 K, 101 kPa, x1 = 0.1005	1.747 mPa·s
313.15 K, 101 kPa, x1 = 0.12	2.07 mPa·s
313.15 K, 101 kPa, x1 = 0.16	3.1 mPa·s
313.15 K, 101 kPa, x1 = 0.2026	4.038 mPa·s
